This is an account of results in publication PMC3656144.

Results are given in words; binding and its absence hold for the method and conditions named. In cells and extracts the contact can be indirect. Some results given as binding are weak or reduced against the parent protein; the word gives no strength. Tags and fused reporters may be left off the sequences shown.

The target of one assay is T1, APA-2::GFP (C. elegans) (UniProt Q22601).
T1 sequence: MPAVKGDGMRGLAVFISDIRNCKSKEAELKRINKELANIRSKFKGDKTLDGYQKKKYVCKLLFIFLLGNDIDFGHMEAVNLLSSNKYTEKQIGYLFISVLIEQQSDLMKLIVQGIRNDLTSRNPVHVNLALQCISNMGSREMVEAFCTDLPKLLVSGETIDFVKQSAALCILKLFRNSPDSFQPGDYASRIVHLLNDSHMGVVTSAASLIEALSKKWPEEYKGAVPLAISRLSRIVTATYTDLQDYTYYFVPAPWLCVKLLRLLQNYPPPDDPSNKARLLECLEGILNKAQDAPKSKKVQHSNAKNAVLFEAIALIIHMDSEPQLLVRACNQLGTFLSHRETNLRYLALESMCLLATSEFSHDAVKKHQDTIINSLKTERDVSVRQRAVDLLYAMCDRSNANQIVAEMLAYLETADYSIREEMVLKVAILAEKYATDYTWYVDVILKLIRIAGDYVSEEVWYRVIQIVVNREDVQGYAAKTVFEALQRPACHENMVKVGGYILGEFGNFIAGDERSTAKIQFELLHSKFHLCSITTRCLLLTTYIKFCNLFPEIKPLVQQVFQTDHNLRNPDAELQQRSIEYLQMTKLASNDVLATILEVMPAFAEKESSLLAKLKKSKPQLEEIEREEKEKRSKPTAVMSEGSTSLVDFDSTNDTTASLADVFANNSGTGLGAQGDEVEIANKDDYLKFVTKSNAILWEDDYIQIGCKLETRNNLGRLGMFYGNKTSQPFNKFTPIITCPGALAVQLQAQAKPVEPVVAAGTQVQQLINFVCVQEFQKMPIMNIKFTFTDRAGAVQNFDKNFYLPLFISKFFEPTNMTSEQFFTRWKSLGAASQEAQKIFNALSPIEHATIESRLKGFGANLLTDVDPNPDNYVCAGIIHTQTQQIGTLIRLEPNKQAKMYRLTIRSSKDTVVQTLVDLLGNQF
The experiment in a line: co-IP; IP with GFP antibody from lysates of animals co-expressing an mCherry fusion and a GFP fusion (control: mCherry fusion alone); blots with mCherry and GFP antibodies.

A further assay has as its target T2, DPY-23::GFP (C. elegans) (UniProt P35603).
T2 sequence: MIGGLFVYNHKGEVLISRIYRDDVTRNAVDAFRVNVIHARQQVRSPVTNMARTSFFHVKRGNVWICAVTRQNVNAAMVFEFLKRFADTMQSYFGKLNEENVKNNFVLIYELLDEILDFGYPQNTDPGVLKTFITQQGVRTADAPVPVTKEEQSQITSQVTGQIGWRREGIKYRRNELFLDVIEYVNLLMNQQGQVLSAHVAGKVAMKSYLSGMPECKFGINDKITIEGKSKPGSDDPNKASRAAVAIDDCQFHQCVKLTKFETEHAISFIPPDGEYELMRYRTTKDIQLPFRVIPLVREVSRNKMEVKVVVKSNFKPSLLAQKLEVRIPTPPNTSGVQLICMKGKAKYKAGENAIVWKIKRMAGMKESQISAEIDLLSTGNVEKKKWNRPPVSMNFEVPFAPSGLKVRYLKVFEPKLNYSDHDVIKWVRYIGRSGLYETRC
The assay is described as above.

B1: LST-4::mCherry (protein, UniProt Q8I4E2 1-566)
chain: MAQVKAEYDFQSQPNTGELSISAGEVLTVIRENIDGGWIEGRNVRGSVGLFPESYVTPYQASRPPPVLPPPLPPTSSGPPAASSRPFDDWGGASEVAAPPSYGAQHHHQPTPSVPEVTRSSYPSQNDDFDDEWTDEDDEQEPTRPNVQSSIGSNSRRDLSRSHSEHGGPDRGSNKVNKNINRFSNFVKSGVEAYVIGESKTTSQISERHEVVMNNGIIQWKPIQQYYTCIVDKPKKESKLKGLKSFIAYSITSSLTNIQRQVSRRYKHFDWLHEQLSAKYVLIPIPPLPEKQVAGRYEEDLIDHRKHILQLWVNKICRHPVLSQSEVWLHFISCTDEKDWKNGKRRAEKDEYIGGAFLNCITVPHQPLDPNNVDMQVERFQRSVKTSEEAMRVMQERMNMFQKVFAGPVKQNWQKMGSAFKTLQQSFEIDETVASRRLTEALAYTASEYHEIGQVFDAHTKNDMEPVLENLYSYKGTVQNVPDIIQVHKQAVQKFRDSEGRLSSAEAEKMKQRIDAMSYTVIAEVQHQTAEKVEDMKSTMGTYLKKQAMFYQEVATKLTSLAARYD
In the case of B1, the binding entry with APA-2::GFP (C. elegans) and with DPY-23::GFP (C. elegans) was “binds” in each case.
